Measured values: the supplement of paper PMC12217912
This is one part of the list. The full chains were built here from the parent and the listed change. Inactive controls read about 0.05.

B1: TEV protease; numbered along this chain (parent)
chain: MGESLFKGPRDYNPISSSICHLTNESDGHTTSLYGIGFGPFIITNKHLFRRNNGTLVVQSLHGVFKVKDTTTLQQHLVDGRDMIIIRMPKDFPPFPQKLKFREPQREERICLVTTNFQTKSMSSMVSDTSCTFPSGDGIFWKHWIQTKDGQCGSPLVSTRDGFIVGIHSASNFTNTNNYFTSVPKNFMELLTNQEAQQWVSGWRLNADSVLWGGHKVFMVKPEEPFQPVKEATQL

Variants of: B1
Assay: raw area under fraction-flipped curve 0-4 h after induction (AUC4h, not background-subtracted), DNA-recorder readout of cleavage of the substrate (dimensionless); higher = more cleavage of the substrate by the protease variant
Settings: temperature: 34 °C; time window: 0-4 h after rhamnose induction
Protocol: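 In vivo DNA recorder in E. coli TOP10(DE3) ΔrhaA at 34 °C. Each TEVp single-site mutant (parent TEVp 0) is paired with a single-site variant of the 7-mer TEVs (canonical ENLYFQ|S). The substrate sits between flexible linkers in a Bxb1-sfGFP-TEVs-SsrA fusion, so cleavage stabilises Bxb1 and speeds flipping of a recombination array, read by NGS. The value is the raw area under the fraction-flipped curve over 0-4 h after rhamnose induction (AUC4h), with ≥20 reads per time point. It is not background-subtracted; inactive controls average about 0.047.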
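Also: Bxb1 expression induced with 0.2% (w/v) L-rhamnose at OD600 near 0.5, cultures sampled hourly, flipped fraction per protease–substrate barcode pair counted by paired-end Illumina sequencing.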

Variant	area with substrate ENAYFQS	area with substrate ENCYFQS	area with substrate ENDYFQS	area with substrate ENEYFQS	area with substrate ENFYFQS	area with substrate ENGYFQS	area with substrate ENHYFQS	area with substrate ENIYFQS	area with substrate ENQYFQS	area with substrate ENRYFQS	area with substrate ENSYFQS	area with substrate ENTYFQS	area with substrate ENVYFQS	area with substrate ENYYFQS	area with substrate ENMYFQS	area with substrate ENNYFQS	area with substrate ENPYFQS	area with substrate ENWYFQS	area with substrate ENKYFQS
W203N	0.0596	0.0697	0.0641	0.0573	0.0412	0.0523	0.0705	0.06	0.0702	0.0581	0.0678	0.0538	0.0624	0.0575	–	–	–	–	–
S201R	0.0556	0.0598	0.0646	0.0532	0.0667	0.0357	0.0507	–	0.0594	–	0.0698	–	–	0.0745	0.0793	0.0597	0.0458	0.0447	–
Q227L	0.0625	0.0639	0.0577	0.0644	0.0459	0.0534	–	–	0.0586	0.0532	0.0673	–	0.0767	0.0505	0.0822	0.0728	0.0533	0.0422	0.0531
Q227V	0.0728	0.0638	–	0.0585	0.0782	0.124	0.0623	–	0.0799	0.0812	0.0619	–	0.0896	–	–	0.0703	0.052	–	0.0515
H215C	0.0491	–	–	–	0.0553	–	–	–	–	–	0.0633	0.072	–	–	0.069	–	–	–	0.0804
P222F	0.0555	0.0574	0.0628	0.0577	0.0574	0.0604	0.0555	0.0931	0.0472	0.0591	0.0662	0.064	0.0637	0.0616	0.0629	–	0.0044	0.0514	–
P222D	0.0566	–	0.0587	0.0581	0.0481	0.0631	–	–	0.0614	–	0.0537	0.0593	–	0.0564	–	0.0488	0.0631	0.0095	0.0588
S209V	0.0542	–	0.05	0.0575	0.0653	0.0714	0.072	0.102	0.0536	0.0908	0.058	0.0558	0.0841	0.0756	–	0.0694	–	0.0769	0.0719
M219S	0.0581	0.0566	0.0525	0.0487	–	–	–	0.0886	0.0592	0.0609	0.0556	0.0554	0.0612	0.0575	0.0732	0.0526	0.0641	0.0239	0.0623
L205G	0.0594	–	0.0694	–	0.0493	–	–	0.0593	0.0679	0.05	0.0534	0.0488	0.0536	–	0.0645	0.0482	–	–	0.0501
L205M	0.0458	0.0616	0.0473	–	0.072	–	0.0543	–	0.0816	0.0477	0.0406	0.0644	0.0739	0.0497	0.112	–	0.0605	0.0579	0.0618
V217P	0.0577	0.0543	0.0717	0.0719	–	–	0.0687	0.0492	0.0583	0.0641	0.0675	0.0494	0.0573	0.0563	–	0.0638	–	0.0484	0.0458
V217C	0.0515	0.0628	0.0536	0.0613	–	0.0578	0.0593	0.115	0.0658	0.0496	0.061	0.0718	0.11	0.0452	–	0.0523	–	–	0.078
L211Q	0.0701	–	0.0697	0.0544	0.0528	0.0718	0.0676	0.115	0.067	0.0536	0.0605	0.0553	0.0526	0.0685	–	0.0666	0.0598	–	0.0714
W199E	0.0622	–	0.0617	0.0615	0.0614	0.0633	–	–	0.0663	–	0.0737	0.0505	0.0662	0.0676	0.0791	0.0527	0.0702	–	–
F226H	0.0557	0.0604	0.0328	0.0545	0.0676	0.0856	0.0734	0.137	0.0728	0.053	0.0674	0.0564	0.0534	0.0617	–	0.0649	0.0437	–	0.0603
F226N	0.0652	0.0732	0.0826	0.053	0.0602	0.0643	0.132	0.0983	0.059	0.0601	0.0645	0.0636	0.0729	0.0688	0.0775	0.0583	0.0575	0.0598	0.0457
F226M	0.0574	0.0629	0.0562	0.0583	0.0557	0.0636	0.0715	–	–	0.0581	0.0587	0.11	0.006	–	0.0801	0.0434	0.0443	0.0641	–
R204F	0.0706	0.0543	0.0572	0.0637	–	–	0.0531	0.117	0.0556	–	0.056	0.0565	0.102	0.0409	0.0808	0.0577	0.0666	0.0551	0.0578
R204L	0.0563	0.0684	0.0494	0.0616	0.0588	0.0581	0.065	–	0.0604	0.0571	0.0608	0.0631	0.0643	–	0.061	0.0638	0.0516	0.0547	0.0864
K221F	0.0297	0.0582	0.0542	0.0487	0.0708	0.0545	0.0534	–	0.0566	0.0548	0.065	0.0562	0.0696	0.0465	0.0579	0.0498	–	–	–
V220W	0.0619	0.0562	0.062	0.0707	0.057	0.0587	0.057	0.0864	0.0626	–	0.0704	0.0581	0.0744	–	0.117	0.0629	–	–	–
V220M	0.0572	0.0721	0.0523	0.0553	0.0623	0.0656	–	0.129	0.0584	0.0644	0.049	0.0456	–	0.0449	–	0.0567	–	–	0.0537
E223I	0.0647	–	0.0623	0.0574	–	0.0632	0.0569	0.135	0.0647	0.0679	0.0669	0.0642	–	–	–	0.0753	0.0733	–	–
